# In all, about 310,000 compounds went through this assay and about 2,200 (0.71%) showed an effect of 50% or more. Effects have a minus sign here. Some of the results follow.
# Target: human ether-à-go-go-related gene (hERG) potassium channel (human, UniProt Q12809)
# Test: primary screen, population patch clamp on CHO cells stably expressing hERG
# Chain of human ether-à-go-go-related gene (hERG) potassium channel (Q12809 whole entry, looked up): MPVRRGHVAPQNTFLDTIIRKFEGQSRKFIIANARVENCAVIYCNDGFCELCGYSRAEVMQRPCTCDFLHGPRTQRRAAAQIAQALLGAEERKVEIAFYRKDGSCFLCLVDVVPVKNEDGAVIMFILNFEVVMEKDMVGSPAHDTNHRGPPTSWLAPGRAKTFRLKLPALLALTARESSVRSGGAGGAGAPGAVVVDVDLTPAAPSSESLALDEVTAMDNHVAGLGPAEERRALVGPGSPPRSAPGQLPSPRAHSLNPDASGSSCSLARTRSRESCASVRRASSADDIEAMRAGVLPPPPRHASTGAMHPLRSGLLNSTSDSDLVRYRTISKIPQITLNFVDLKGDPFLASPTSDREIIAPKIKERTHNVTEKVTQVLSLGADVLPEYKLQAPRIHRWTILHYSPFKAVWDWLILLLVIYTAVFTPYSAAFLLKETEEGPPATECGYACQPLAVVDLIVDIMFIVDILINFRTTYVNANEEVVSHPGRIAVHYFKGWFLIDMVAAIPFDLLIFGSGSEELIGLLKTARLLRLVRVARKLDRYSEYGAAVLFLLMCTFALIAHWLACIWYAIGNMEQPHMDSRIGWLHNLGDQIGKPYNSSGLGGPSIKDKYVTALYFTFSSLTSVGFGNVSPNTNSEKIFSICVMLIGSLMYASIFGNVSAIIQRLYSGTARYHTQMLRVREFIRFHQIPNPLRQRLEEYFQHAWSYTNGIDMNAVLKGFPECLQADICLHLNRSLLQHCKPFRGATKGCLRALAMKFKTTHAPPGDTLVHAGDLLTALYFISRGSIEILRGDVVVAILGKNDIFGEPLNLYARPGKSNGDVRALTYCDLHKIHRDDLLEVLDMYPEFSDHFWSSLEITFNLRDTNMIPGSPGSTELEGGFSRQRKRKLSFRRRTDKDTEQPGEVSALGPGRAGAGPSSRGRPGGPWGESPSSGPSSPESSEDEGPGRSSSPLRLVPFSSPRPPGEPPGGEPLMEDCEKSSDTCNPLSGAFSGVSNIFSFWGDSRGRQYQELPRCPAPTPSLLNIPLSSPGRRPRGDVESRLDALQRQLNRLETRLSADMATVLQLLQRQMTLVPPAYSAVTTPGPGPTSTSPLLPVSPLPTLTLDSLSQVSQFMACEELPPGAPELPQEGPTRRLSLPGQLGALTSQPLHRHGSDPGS
row,Compound,"hERG current change (%, negative = inhibition) at 1uM"
1,CCOC(=O)N1CCC(NC(=O)c2cccs2)CC1,9.95%
2,COc1ccc(S(=O)(=O)NCc2ccccn2)cc1Cl,0.79%
3,CCc1nnc(NC(=O)C2CC(=O)N(Cc3ccco3)C2)s1 (stereo not drawn),5.88%
4,C/C(=N\Nc1ccccc1[N+](=O)[O-])c1ccccc1O,20.4%
5,CCCOc1ccc(N2C(=O)CC(SC(=NC)Nc3ccc(F)cc3)C2=O)cc1 (stereo not drawn),12.5%
6,Cc1ccccc1N1CCN(S(=O)(=O)c2nnc(NC(=O)CC(C)C)s2)CC1,16.3%
7,COc1ccccc1-n1c(COc2ccccc2-c2ccccc2)nnc1SCC(=O)c1c(N)n(C)c(=O)n(C)c1=O,15.4%
8,CCn1c(/N=C/c2c[nH]c3ccccc23)nc2ccccc21,12.2%
9,C=CCn1c(SC(C)C(=O)NCc2ccc3c(c2)OCO3)nnc1C1CCCCC1 (stereo not drawn),4.76%
10,COC(=O)c1ccccc1-c1cn(C)c2ccccc2c1=O,9.38%
11,CC(=O)SCC(C)C(=O)NCc1ccccc1 (stereo not drawn),20.2%
12,CCN(CC(=O)Nc1ccc(NC(C)=O)cc1)C(=O)c1cc2c(s1)CCCCC2,2.11%
13,CC1(C)CC(=O)C2=C(C1)OC(N)=C(C#N)C21CCN(Cc2ccccc2)CC1,16.2%
14,Cc1ccc(CSCC(=O)NCCCN2CCOCC2)cc1,16.7%
15,O=C(NCCNS(=O)(=O)c1ccccc1)c1cc(OCC(F)(F)F)ccc1OCC(F)(F)F,0.144%
16,O=C(c1ccc(CNc2c(N3CCCC3)c(=O)c2=O)cc1)N1CCN(C2CCCCC2)CC1,13.2%
17,Cc1ccc(OCC(O)CN2C(=O)NC(C)(C)C2=O)c(C)c1 (stereo not drawn),6.92%
18,Cc1ccc2c(c1)N(C(C)C(=O)N1CCC3(CC1)OCCO3)C(=O)CO2 (stereo not drawn),13.9%
19,CCOC(=O)c1cc2c(=O)n3ccccc3nc2n(CCCOC)c1=NC(=O)c1ccncc1,-40%
20,CCCn1c(-c2ccc[nH]c2=O)nc2ccccc21,13.6%
21,Br.CC(C)CC1CC(=O)OC1(C)C(=O)CSc1nc2ccccc2s1 (stereo not drawn),13.8%
22,Cc1ccc(NC(=O)Cc2nnc(SCC(=O)NC3CCCC3)n2C)cc1,11.4%
23,CC1=C(C(=O)N2CCOCC2)C(c2ccccc2F)C2=C(CC(C)(C)CC2=O)N1 (stereo not drawn),2.56%

row,Compound,"hERG current change (%, negative = inhibition) at 1uM"
1,COc1ccc(NS(=O)(=O)c2ccc(N3CCCC3=O)cc2)cn1,10.6%
2,COc1cc(C(=O)Nc2ccc(N(C)C)cc2)c([N+](=O)[O-])cc1OC,13.6%
3,COc1cc(/C=N/N=C/c2c[nH]c(=O)c(C#N)c2Nc2ccccc2)ccc1O,8.15%
4,CCC[C@@H]1C[C@@]1(CCC)[C@@H](NP(=O)(c1ccccc1)c1ccccc1)c1ccc(C(=O)OC)cc1,8.17%
5,CCCCCNC(=O)c1ccccc1SC,7.72%
6,CCOc1ccc(CCNC(=O)c2sc3nc4n(c(=O)c3c2C)CCC4)cc1OCC,0.811%
7,Cc1ccc(N2CC(C(=O)Nc3ccncc3)CC2=O)cc1 (stereo not drawn),6.22%
8,Nc1nnc(CCS(=O)(=O)c2ccc(Cl)cc2)s1,0.573%
9,Cc1ccc(C(=O)N/C(=C\c2ccco2)C(=O)N2CCCCC2)cc1,10.4%
10,C=CCN1CCN(c2ccncc2S(=O)(=O)N2CCCCC2)CC1,9.05%
11,O=S1(=O)CCC(NC(=S)NC2CCS(=O)(=O)C2)C1 (stereo not drawn),11.6%
12,COc1ccc(S(=O)(=O)CCc2nc3ccccc3s2)cc1,3.21%
13,O=C(c1ccc(N2CCCC2)c([N+](=O)[O-])c1)N1CCc2ccccc2C1,9.05%
14,CC(C)(C)C(=O)Nc1ccc(S(=O)(=O)c2ccc(NC(=O)C(C)(C)C)cc2)cc1,16.3%
15,COc1ccc(CCNC(=O)CN(c2cc(OC)ccc2OC)S(=O)(=O)c2ccccc2)cc1,14.6%
16,CC(C)(C)c1ccc(C(=O)NCCOc2ccccc2F)cc1,8.82%
17,Cc1cnc(NC(=O)c2ccc3c(c2)OCCO3)s1,6.7%
18,O=S1(=O)CCC(NC(=S)N2CCCCCC2)C1 (stereo not drawn),14.1%
19,CCN1CCN(C(=O)/C=C/c2ccc(OC)c(OC)c2)CC1,14.8%
20,CCCCN1C(=O)C(=O)N(CC(=O)Nc2sc(C)c(C)c2C(=O)OC)C1=O,10.5%
21,Cc1ccc(NC(=O)NCc2cccn2C)cc1C,13%
22,COc1ccc(C2C=C(c3ccccc3)Nc3nc(CCCO)nn32)cc1 (stereo not drawn),5.06%
23,Cc1cc(C)n2nc(C(=O)NCCc3ccccc3)nc2n1,9.62%

row,Compound,"hERG current change (%, negative = inhibition) at 1uM"
1,CCC/S(CC1CC1(Cl)Cl)=N\S(=O)(=O)c1ccc(C)cc1 (stereo not drawn),0.842%
2,Cc1cc(C)nc(Nc2cccc(C(F)(F)F)c2)n1.Cl,13.7%
3,CCCCCC(=O)NCc1c(C(F)(F)F)nn(C)c1N1CCOCC1,8.92%
4,O=C(Nc1ccn(-c2ccccc2)n1)c1ccc(S(=O)(=O)N2CCCCCC2)cc1,-1.55%
5,COC(=O)c1ccc(NC(=O)CCn2c(=O)oc3ccccc32)cc1,16.8%
6,C/C(N)=C(/C#N)C(=O)COC(=O)c1oc2ccccc2c1COC(C)C,11.4%
7,COC(=O)c1ccc(-c2c(-c3ccccc3)ncc3cc(OC)c(OC)cc23)cc1,2.4%
8,O=C(O)c1ccccc1-c1ccccc1C(=O)Nc1cccc2ccccc12,20%
9,C=CCn1c(SCC(=O)NC2CC2)nnc1-c1ccccn1,11.1%
10,C#CCOCCOCCOCCNc1nc(N2CCN(C(=O)[C@H](CCCCN)n3cc([C@@H](N)CC(C)C)nn3)CC2)nc(N2CCN(C(=O)[C@H](Cc3ccc(O)cc3)n3cc([C@@H](N)CC(C)C)nn3)CC2)n1.Cl,3.67%
11,O=C(NC1CCCC1)C(c1ccncc1)N(C(=O)c1csnn1)c1ccc(Cl)cc1 (stereo not drawn),11.8%
12,COc1ccc(OCC(O)CNS(=O)(=O)c2ccc(NC(C)=O)cc2)cc1 (stereo not drawn),8.05%
13,CCCCOc1ccc(C(=O)N(CC)CC(=O)NCc2cccs2)cc1,-8.88%
14,Cl.NCCc1nnc(SCc2ccccc2F)o1,16.1%
15,CNC(=S)N(Cc1ccc2c(c1)OCO2)C1CC(=O)N(c2ccc(F)cc2)C1=O (stereo not drawn),7.47%
16,CC(=O)Nc1ccc(S(=O)(=O)N=S(C)C)cc1,2.34%
17,COC(=O)c1nn(-c2cccc(C)c2)c2nnc(Cc3ccccc3)c(=O)n12,3.61%
18,FC(F)(F)c1ccccc1/C=N/Nc1ccccn1,1.55%
19,COc1ccccc1NS(=O)(=O)c1cccc(C(=O)NCC(c2ccco2)N(C)C)c1 (stereo not drawn),-8.76%
20,Nc1n[nH]c(S(=O)(=O)CCCc2ccccc2)n1,10.6%
21,O=C(CCSCCc1ccccn1)Nc1ccc(Br)cn1,-7.53%
22,COc1ccccc1CN1CCSCC1,8.24%
23,O=C(Cn1cc2c(n1)CCCCC2)NCc1ccccn1,-2.41%

row,Compound,"hERG current change (%, negative = inhibition) at 1uM"
1,O=C(Nc1ncc(Cc2ccc(SC(F)F)cc2)s1)c1ccc(OC(F)F)cc1,13.2%
2,COC(=O)c1ccn(-c2nc(-c3ccco3)cc(C(F)(F)F)n2)n1,-3.11%
3,O=C(CCCCCNC(=S)Nc1ccccc1)C[N+](=O)[O-],0.796%
4,COc1ccc(Nc2nc(N3CCCC3)nc(N3CCOCC3)n2)cc1,1.98%
5,CCCCNS(=O)(=O)c1ccc2nc(SCC(=O)N3CC(C)OC(C)C3)[nH]c2c1 (stereo not drawn),9.31%
6,Cc1c(S(=O)(=O)Nc2ccc(Br)cc2)c(=O)n(C)c(=O)n1C,12%
7,Nc1nc(-c2cccs2)c(CC(=O)O)s1,18.2%
8,COc1ccc(CC(=O)OC(C)CN2CCCCC2)cc1 (stereo not drawn),11%
9,CCCNC(=O)c1cc2cc([N+](=O)[O-])ccc2s1,-1%
10,COC(=O)c1c(NC(=O)CN2C(=O)c3ccccc3C2=O)sc(Cc2ccc3c(c2)OCO3)c1C,11.7%
11,COc1ccc(C(=O)Nn2cc3c(c2-c2ccccc2)c(=O)n(C)c(=O)n3C)cc1,16.6%
12,Cc1noc(C)c1C(=O)N1CC(C)OC(C)C1 (stereo not drawn),-5.43%
13,CCOc1ccc(CSC(CC(=O)O)C(=O)O)cc1 (stereo not drawn),6.71%
14,O=C1/C(=C/c2ccccn2)SC(=S)N1c1cccc(O)c1,11.2%
15,COc1ccc(CC(C)NCCc2ccc(OC)c(OC)c2)cc1 (stereo not drawn),-45.3%
16,COc1cc(NC(=O)NCc2ccncc2)cc(OC)c1OC,4.67%
17,C/C(=N/NC(=O)c1cc(-c2cccc([N+](=O)[O-])c2)n[nH]1)c1ccc(Cl)cc1,9.99%
18,COC(=O)c1ccc(-c2ccc(Cl)cc2)nc1C,14.1%
19,Cc1ccccc1/C=C/C1=NCCN1.O=C(O)C(=O)O,7.6%
20,CCNC(=S)Nc1cc(-c2ccc(Cl)cc2)[nH]n1,14.3%
21,CCOC(=O)c1cccc(S(=O)(=O)N(CCO)Cc2cc3cc(OC)c(OC)cc3[nH]c2=O)c1,-2.88%

# From article PMC4336329 (PLoS ONE, 2015)
